Measured values taken from the supplement of paper PMC11417369.
± gives the standard deviation of the averaged measurements. This is one part of the list.

tested on: PfAP2-EXP AP2 domain (GST-tagged); assay: gcPBM binding intensity (ln(normalized median fluorescence intensity)); higher = stronger DNA binding
Procedure, shortened: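 GST-fused DNA-binding domains of P. falciparum, expressed in E. coli, were applied at about 25 μg on average for 1 h to an Agilent 4 × 180k array of primer-extended double-stranded 36-bp intergenic genomic probes and negative controls. Binding intensity is the highest Masliner-normalised natural-log median intensity across replicate spots of either probe orientation, measured with Alexa488 anti-GST antibody and a 488 nm scan.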

| Sequence | gcPBM binding intensity (ln) |
| --- | --- |
| AATTTTTCAAATTAATGTACTTGTTATAAATTGTAA [XGTACX_site5428] | 8.13 ± 0.38 |
| GGACAACAAACAAACACACACAAAAAAAAAATAAAA [CACACA_site3791] | 8.5 ± 0.68 |
| TATATCTGTTTATATTGTACACATATATATATATAT [XGTACX_site714] | 10 ± 0.27 |
| GGCAATACATAATAATGTACATAATTATATAATATT [XGTACX_site3739] | 8.62 ± 0.45 |
| TATATATATATATAATGTACATATAATATATTTATT [XGTACX_site7892] | 9.85 ± 0.42 |
| TGCATATACGCAAGCACACATATATATATATATATA [CACACA_site1069] | 10.2 ± 0.51 |
| TTTTGATTTCCTATTGCACACTTTTTTTAAGTTTAT [CACACA_site1056] | 8.94 ± 0.32 |
| TAAATATATTAATACACACACGATATGTACAAAAAA [CACACA_site540] | 8.79 ± 0.36 |
| GCTTAATGTCATATATCACACATGAAAATATATATA [CACACA_site5089] | 8.62 ± 0.45 |
| TTAAAATTAAAAATGCGTACACATATACATAAAAAA [XGTACX_site1915] | 8.73 ± 0.3 |
| ATTAATTTTAATAAAGGTACACGTAGTTTTTTATTA [XGTACX_site7868] | 8.16 ± 0.34 |
| TATATATATATATATTGTACTGAACGTTTTTTTTTG [XGTACX_site8060] | 10.2 ± 0.39 |
| AACAAAACCTTATATGTACACACATATACATCACAC [CACACA_site9037] | 8.75 ± 0.23 |
| AATTTATAATTATAGAGTACATATTTTTAATATATA [XGTACX_site2566] | 8.1 ± 0.28 |
| ACAGCTACCAGATACTGTACTTTTCTCCAGACTGCA [XGTACX_site2541] | 8.64 ± 0.35 |
| TATATTTTGTTCTTTCCACACACAAATACATATATT [CACACA_site9348] | 8.9 ± 0.48 |
| ATATACATAATCTTCTTGCACTTTTTTTTTTTTTTT [GTGCAC_site9410] | 8.9 ± 0.36 |
| ATGTGATATAAGTACACACACATATGTATTTATAAC [CACACA_site6942] | 8.62 ± 0.18 |
| GTAATAATTTTTTGTAGTACACAAAAATTCATATTT [XGTACX_site2699] | 8.63 ± 0.31 |
| ATATACACTTAATTTTTTATAAAAAAAAATTTATAT [CACACA_negctrl_site498] | 8.24 ± 0.37 |
| ATTTCATTTTATAAGTGTACAATAAAAAAAAAAAAA [XGTACX_site8677] | 8.68 ± 0.42 |
| CTTAAAAAAACCTTAACACACATAAACTCTAATTTA [CACACA_site7430] | 8.14 ± 0.49 |

| Sequence | gcPBM binding intensity (ln) |
| --- | --- |
| GTTTACATTAAAAATTGTACTCTGTATGAATAATAT [XGTACX_site80] | 8.28 ± 0.35 |
| AAATTTGATATAAAAAGTACAAAATGTTCCTCAGCT [XGTACX_site809] | 8.56 ± 0.25 |
| ATATAAACAGAAAATAGTACTTTATATTGAAAAAAA [XGTACX_site7183] | 8.49 ± 0.4 |
| GATGATACAAAGTAATGTACATAAATACACATATTG [XGTACX_site3177] | 8.48 ± 0.3 |
| CATTATGTCGTAAATACACACATACCTATACATACA [CACACA_site6763] | 8.67 ± 0.24 |
| AATATATAGCTAAAAACACACAAATATATACGCATA [CACACA_site3608] | 8.85 ± 0.42 |
| TATACACATATATAAACACACAAAAAAAAAAAAAAA [CACACA_site7041] | 8.19 ± 0.63 |
| CCATAAGATATATGTAGTACATATTATATATATATA [XGTACX_site2104] | 9.89 ± 0.26 |
| TTTATATGATATATTACACACAAAAAAAAAAAAAAA [CACACA_site3549] | 8.21 ± 0.51 |
| TAGATACTTGTCATGGGTACATATCGTACCTTTTGG [XGTACX_site6781] | 8.5 ± 0.52 |
| CTCTTCTATATATAAGCATGCATTCATAATAATTTA [TGCATGCA_site679] | 9.3 ± 0.29 |
| GATAATTTTTTTCTCACACACAAATATTTTAATCAT [CACACA_site3666] | 8.57 ± 0.38 |
| AAATATATTATATCATATATTAAAGCATATATTAAA [CACACA_negctrl_site1624] | 8.17 ± 0.41 |
| GAATATTCACATACTTGTACATATATATATATATAT [XGTACX_site7302] | 10.2 ± 0.68 |
| AGGTAAAAATGGTAAGTGCATTAATGATAAAAAATG | 8.9 ± 0.83 |
| AAAAAAAAAAAACACACACACACACCGACACATACA [CACACA_site5576] | 8.35 ± 0.27 |
| CAAAAAAAATAAAACACACACACAAAAAAATAAAAA [CACACA_site466] | 8.6 ± 0.61 |
| TATAAGAATAAAAAGGGTACATAAAATAATAATATA [XGTACX_site2355] | 8.82 ± 0.38 |
| GTTTACATAGATAACTGTACGCAATGATATTAGACA [XGTACX_site1320] | 8.625 ± 0.064 |
| TGGCAAAATAGGCACACACACATATACCTATAGATT [CACACA_site7168] | 8.49 ± 0.45 |
| GTAAATATATAAACATGTACATATATAAATATATAA [XGTACX_site7262] | 8.51 ± 0.33 |
| ATATTTTGGGGACTTTTTAAAAAAGAAGTATTAAAA [CACACA_negctrl_site1228] | 8.63 ± 0.37 |
